In paper PMC4242493:
The other results are listed elsewhere or left out. The list includes weakly bound sequences.

Target: MaxL homodimer (UniProt P61244)
Test: universal protein-binding microarray (PBM)
Details: PBS-based mixture, 10 nM His-tagged protein dimer, 2% milk, 200 ng/uL BSA, 50 ng/uL salmon testes DNA, 0.02% TX-100; detection with Alexa 488 anti-His …; high values mean tight binding; most listed sequences are background and not binding sites; double strand, one strand shown

Chain of UniProt P61244 (P61244 whole entry): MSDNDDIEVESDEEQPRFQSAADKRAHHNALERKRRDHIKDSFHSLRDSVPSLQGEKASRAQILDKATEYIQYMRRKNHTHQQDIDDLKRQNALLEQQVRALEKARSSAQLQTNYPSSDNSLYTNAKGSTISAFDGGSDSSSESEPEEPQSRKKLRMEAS

Sequence	binding signal (normalized occupancy)
TAATTGCA	0.0767
CTTCACCC	0.0709
CATGCTCC	0.105
TATGCCCA	0.0827
AATTAGAG	0.0731
ATGGGTAC	0.0885
GGGGGATA	0.0856
ACCCAGGG	0.075
ATGCACAT	0.091
CTTGCGTC	0.0745
CCCTTAAC	0.081
CACGGCTG	0.0724
AAGGAAGT	0.0705
CTTTACTC	0.0791
CAGGCCAG	0.0704
AAGTGGTC	0.0703
CGTTAAAA	0.0745
ACGGTGGC	0.079
AGAGGCGA	0.0756
ATTTTGTC	0.0833
CAGGCTCG	0.0704
ACATTCAG	0.0769

Sequence	binding signal (normalized occupancy)
GTCCTGGA	0.0705
AACAGCTA	0.0702
ACATGGCA	0.0904
CAGCCTTA	0.0704
CTGTTATC	0.078
CTTTGTTC	0.0703
CACTGTAG	0.0709
AGCTCGCC	0.0687
CGCTTGAA	0.0767
CCTTCTAC	0.0814
GGCACCGA	0.0735
GAACACAC	0.0767
AATGGGGT	0.0815
ACATACTA	0.0827
AAAACGGG	0.0748
CTTCAAGC	0.066
ACTGTAAA	0.07
ATGTACAG	0.0788
CTTACAAA	0.0731
GAGACTGC	0.0672
GCATCGCA	0.0729
AGTTCTGA	0.0719

Sequence	binding signal (normalized occupancy)
GCCCTAGC	0.0751
CGCCGTGC	0.0731
CATCAGTA	0.0737
ACAACGTG	0.149
AAAAGCTA	0.0755
CTCAGTAA	0.0708
CTTGCGTA	0.0773
ATTTAATA	0.0819
ATCTGGGA	0.0784
CTCATCAC	0.0847
CAACTTGG	0.0743
CTATTAAA	0.0743
ATGTGGAA	0.0936
CCGCCTAG	0.0722
GGCACCAA	0.0733
CGACTTAC	0.0757
GCAAACCA	0.0788
CAAGACCA	0.0735
AGTAATAA	0.0782
AGCCAGAG	0.0664
ATAGTGCA	0.0789
CCCATGCC	0.0969

Sequence	binding signal (normalized occupancy)
ACTCCTAG	0.0733
CACTTTAC	0.0758
ATATGTTG	0.0848
CTAAGACC	0.0743
CTATTAAG	0.0714
GTTTGGAA	0.0754
CGGCTGTC	0.0725
ATTATGTC	0.0782
CGTACAAC	0.0768
GAAGACTA	0.0725
ATATTAGC	0.0805
CCTAGGGC	0.0665
ATCCTTGC	0.082
GTTCAACA	0.0758
GTCATGAC	0.0806
TATCTGCA	0.0786
CTTACGTC	0.0749
ATTCTTTA	0.0726
GTCCTAGA	0.0687
AGTCCCGA	0.069
AACTTCAC	0.0762
CTTATGGC	0.0778

Sequence	binding signal (normalized occupancy)
AGATTGTG	0.078
GACAACTC	0.0735
CATGCTAC	0.0953
TCACACCA	0.0869
ATTTCTAG	0.068
CTATATTA	0.0834
GACATGGC	0.0801
CTTGACAA	0.0778
CCTTTGAA	0.075
TCTCTTCA	0.0695
CCTCTACC	0.075
AATTGTCT	0.075
ACGCGATC	0.0797
TATACGAA	0.0761
GTTCAGAA	0.0721
AGCCACGG	0.0742
GAGCGGCC	0.0635
AATCGGAA	0.0705
GTGACGGA	0.0773
ATGTCAGC	0.0849
CGGATAAA	0.0763
